Measurements from PubChem BioAssay AID1745845 (National Center for Advancing Translational Sciences (NCATS), 2022).
Values joined by “and” are separate entries in the source; they are usually repeats but may differ in a detail not shown here. Equal values may be shown once. In all, about 360,000 compounds went through this assay and about 2,600 (0.72%) were called active. Inconclusive results, whose numbers are uncertain, are shown with a selection of clear calls. Calls follow the shape of the dose curve; as a rule, active = well fitted inhibition curve with a large enough effect; inconclusive = small, poorly fitted or top-dose-only effect; inactive = no such curve, though single readings can be large or run the other way. Potencies beside an inconclusive call are fits to weak or partial responses and may not hold up.

assay: Primary qHTS for Inhibitors of ATXN expression; details: HEK-293 ATXN2-luciferase reporter, luminescence, 24 h; activity change, negative = inhibition: at 57 µM (top of the series); also: nearly all actives have a fitted effect of over 55% in size
Method in brief: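 ATXN2-luciferase reporter cells (luciferase flanked by upstream and downstream ATXN2 gene portions) were treated 24 h at 37 °C with compounds at up to 57 uM. SteadyGlo luminescence gave expression; GF-AFC fluorescence gave viability.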
% is scaled to controls: 0 for no effect and ±100 for the full control effect; potency is read from the fitted curve at half-maximal effect; tags tell the direction and shape of the fitted curve.

Potency, active:
COc1cccc(C(=O)N/N=C(/c2ccccc2)c2ccccn2)c1 3.98 µM
CN(CCO)c1cc(Sc2nc3ccccc3s2)c2nonc2c1[N+](=O)[O-] 10 µM
O=C(NNc1nc2ccccc2o1)c1ccccc1 1.58 µM
CC(=O)N(Cc1ccc(F)cc1)C1=C(NCc2ccccc2)C(=O)c2ccccc2C1=O 11.2 µM
Cc1cc(C(=O)N/N=C/c2ccc([N+](=O)[O-])s2)n[nH]1 14.1 µM
COc1cc(C=C2CCC/C(=C\c3ccc(O)c(OC)c3)C2=O)ccc1O 15.8 µM
Cc1cc(C)n(-c2nc(NCCN(C)C)c3c4c(sc3n2)CCCC4)n1 14.1 µM

Potency, inconclusive:
Cc1ccc(NC(=O)C2CCCN(S(=O)(=O)c3c(C)noc3/C=C/N(C)C)C2)cc1F (stereo not drawn) 39.8 µM [inhibitor, partial curve, poor fit]
CCCCCC(=O)N/N=C(\C)c1ccccn1 39.8 µM [inhibitor, single point]
C[C@H](C[C@H](O)[C@H]1OC1(C)C)C1=C2C[C@H](O)C3[C@@]4(C)CCC(=O)C(C)(C)C4CC[C@]3(C)[C@@]2(C)CC1 (stereo partly drawn) 39.8 µM [inhibitor, single point]
C[C@@H](NCCCn1ccc(NC(=O)OCc2ccccc2)nc1=O)c1cccc2ccccc12 31.6 µM [inhibitor, single point]
NC(=O)c1nnn(Cc2cc(Cl)c(C(=O)c3ccc(Cl)cc3)c(Cl)c2)c1N 8.91 µM [inhibitor, partial curve] and 43.2 µM [inhibitor, single point]
Cc1cc(Nc2ccc(C)c(C)c2)c2ccccc2n1 11.2 µM [inhibitor, partial curve, poor fit]
CC(Nc1ccccc1CO)C(=O)Nc1cccc(Cl)c1Cl (stereo not drawn) 1.68 µM [inhibitor, full curve]
Cc1ccc(C)c(-c2nnc(NC(=O)c3ccc([N+](=O)[O-])o3)o2)c1 20 µM [inhibitor, partial curve]
O=C(Nc1ccccc1Cl)N1CCN(c2ccc3nnc(-c4ccccc4)n3n2)CC1 12.6 µM [inhibitor, partial curve]
Cn1cc(CN2CCC(n3nccc3NC(=O)c3ccccc3Cl)CC2)c2ccccc21 39.8 µM [inhibitor, single point]
Cn1c(CO)cnc1SCC(=O)c1ccc(Br)cc1 13.4 µM [inhibitor, partial curve, poor fit]
CCCCCC(=O)N1C[C@H](n2cc(COC(=O)c3ccccc3)nn2)[C@@H](O)C[C@@H]1c1ccc(OC)cc1 39.8 µM [inhibitor, single point]
S=C(NCCCN1CCOCC1)N1CCN(c2nc(-c3ccccc3)cs2)CC1 25.1 µM [inhibitor, partial curve]
CCn1c(=N)c(C(=O)NC)cc2c(=O)n3cccc(C)c3nc21 39.8 µM [inhibitor, single point]
Cn1nnnc1SCCCNCc1ccc(-c2ccc(Br)cc2)o1 12.6 µM [inhibitor, partial curve, poor fit]
Cc1ccc(C)c(S(=O)(=O)N2CCN(c3ncnc4sccc34)CC2)c1 11.2 µM [inhibitor, partial curve]
Cc1cccc(N2CCN(C(=O)c3cccc(N4CCCC4=O)c3)CC2)c1C 11.2 µM [inhibitor, partial curve, poor fit]
O=C(NNC1=C(C(=O)C(F)(F)F)CCC1)c1ccccc1Cl 31.6 µM [inhibitor, partial curve, poor fit]
Cc1cccc(-n2ncc3c(N(C)C4CCCCC4)ncnc32)c1 39.8 µM [inhibitor, single point]
COC1(OC)C(/C=C/c2ccc(Cl)cc2)C(C#N)(C#N)C1(OC)OC (stereo not drawn) 39.8 µM [inhibitor, single point]
Cc1nc(SC(C)C(=O)c2c(N)n(C)c(=O)n(C)c2=O)c2c(C)c(C)sc2n1 (stereo not drawn) 14.1 µM [inhibitor, partial curve, poor fit]
COc1cccc(/C=C/c2ccc3cccc(O)c3n2)c1 39.8 µM [inhibitor, single point]
Cc1ccc(F)c(NC(=O)Nc2ccc(-c3cccc4[nH]nc(N)c34)cc2)c1 13.7 µM [inhibitor, partial curve]
O=C(C=Cc1ccccn1)c1ccccc1O 39.8 µM [inhibitor, single point]
Cc1ccc(-c2[nH]ncc2/C=N/n2c(COc3ccccc3)nc3ccccc3c2=O)cc1 39.8 µM [inhibitor, single point]
COc1cccc(NC(=O)Cn2cc(C(=O)C3CCCCC3)c3ccccc32)c1 28.2 µM [inhibitor, single point]
Cc1ccnc(N/C=C(\C#N)c2nc(-c3cccc(Br)c3)cs2)c1 10 µM [inhibitor, partial curve]
COc1cc(C)c(Cl)cc1S(=O)(=O)NCCc1c(C)[nH]c2ccccc12 35.5 µM [inhibitor, single point]
COc1ccc(CNC(=O)c2cc3c(-c4ccccc4F)nn(C)c3s2)c(OC)c1 7.08 µM [inhibitor, partial curve, poor fit]
COc1ccccc1/C=C/C(=O)NCC(=O)N/N=C/c1cc(Br)ccc1OC 20 µM [inhibitor, partial curve, poor fit]
CS(=O)(=O)c1cc([N+](=O)[O-])c(Sc2nc3ccccc3[nH]2)c([N+](=O)[O-])c1 39.8 µM [inhibitor, single point]
O=C(/C=C/c1ccccc1)Nc1ncn[nH]1 39.8 µM [inhibitor, single point]
O=C(/C=C/c1cccc([N+](=O)[O-])c1)n1cnc2ccccc21 22.4 µM [inhibitor, single point]
O=C1c2ccccc2-c2nnc(-c3ccccc3)cc21 12.6 µM [inhibitor, partial curve, poor fit]
CCOC(=O)Cc1c(C)nc2c(-c3ccc(Cl)cc3)c[nH]n2c1=O 35.5 µM [inhibitor, single point]
Nc1ccc(C(=O)NN2C(=O)[C@H](Cl)C2c2ccc(Cl)cc2)cc1 (stereo partly drawn) 37.7 µM [inhibitor, single point]
CCOC(=O)Nc1ccc2c(c1)N(C(=O)CCCl)c1ccccc1[S@]2=O 35.5 µM [inhibitor, single point]
CC(=O)N1CCc2c(sc3c2c(=O)n(CCc2ccccc2)c(=O)n3Cc2ccc(F)cc2)C1 39.8 µM [inhibitor, single point]
S=C(NCc1ccc(Cl)cc1)NC1CCN(Cc2ccccc2)CC1 11.2 µM [inhibitor, partial curve, poor fit]

Potency, inactive:
CC1=NN(c2ccc(Cl)cc2)C(=O)C1
O=C(Nc1ccc(N2CCN(C(=O)c3cccs3)CC2)cc1)c1ccc(F)cc1
CCCCOc1ccc(OC(=O)c2sc3ncn(Cc4cccc(F)c4)c(=O)c3c2C)cc1
O=C(c1cn(-c2ccccc2)nc1-c1ccc(F)cc1)N1CCCCC1
COc1ccc(C2=NN(CN3C(=O)C(=O)c4ccccc43)C(c3ccc(C)cc3)C2)cc1 (stereo not drawn)
O=C(Nc1nc(-c2ccccc2)cs1)C1CCCO1 (stereo not drawn)
COc1cc(C2NC(=O)C(C#N)=C(S)N2c2ccccc2)ccc1OC(C)C (stereo not drawn)
CCOc1ccc(NC(=S)N=Nc2c(O)[nH]c3ccccc23)cc1
NC(=S)c1ncc(C(F)(F)F)cc1Cl
O=C(c1ccccc1)N1CCN(CCc2ccccc2)CC1
COCC(C)N1CCC(Oc2ccc(C(=O)NCc3ccccn3)cc2)CC1 (stereo not drawn)
O=c1cc(-c2ccccc2F)oc2ccccc12
CC(C)(C)OC(=O)N[C@H]1CCCCCC=C[C@@H]2C[C@@]2(C(=O)NS(=O)(=O)C2CC2)NC(=O)[C@@H]2C[C@@H](OC(=O)N3Cc4cccc(F)c4C3)CN2C1=O
O=C(N/N=C/c1ccccc1F)NC12CC3CC(CC(C3)C1)C2
CNC(=O)NNC(=O)c1csc(Cc2c(Cl)sc3ccc(Cl)cc23)n1
CC1(C)ON=C(c2cccc(F)c2)NC1=O
Cc1ccc(S(=O)(=O)N2CCN(CC(=O)N/N=C\c3ccc(Cl)c([N+](=O)[O-])c3)CC2)cc1
O=c1nc2n(c3ccc([N+](=O)[O-])cc13)CCCCC2
COC(=O)c1cc2c(-c3ccccc3)cc3ccccn3c-2c1C(=O)OC
CCCCN(C(=O)c1ccc(NC2CC2)c([N+](=O)[O-])c1)c1c(N)n(CC(C)C)c(=O)[nH]c1=O

Activity change, negative = inhibition, inactive:
O=c1c2ccccc2nc(SCCN2CCCCC2)n1CCc1ccccc1 -25.1% [at 11.3 µM]

Activity change, negative = inhibition, inconclusive:
CCCCCCCCCC(=O)NNC(=O)c1c(O)c2ccccc2n(CC)c1=O -59.1% [inhibitor]
